The text below walks through data of publication PMC4489161.

The chains behind the UniProt entries cited, without tags or fusion partners.
UniProt Q6R327: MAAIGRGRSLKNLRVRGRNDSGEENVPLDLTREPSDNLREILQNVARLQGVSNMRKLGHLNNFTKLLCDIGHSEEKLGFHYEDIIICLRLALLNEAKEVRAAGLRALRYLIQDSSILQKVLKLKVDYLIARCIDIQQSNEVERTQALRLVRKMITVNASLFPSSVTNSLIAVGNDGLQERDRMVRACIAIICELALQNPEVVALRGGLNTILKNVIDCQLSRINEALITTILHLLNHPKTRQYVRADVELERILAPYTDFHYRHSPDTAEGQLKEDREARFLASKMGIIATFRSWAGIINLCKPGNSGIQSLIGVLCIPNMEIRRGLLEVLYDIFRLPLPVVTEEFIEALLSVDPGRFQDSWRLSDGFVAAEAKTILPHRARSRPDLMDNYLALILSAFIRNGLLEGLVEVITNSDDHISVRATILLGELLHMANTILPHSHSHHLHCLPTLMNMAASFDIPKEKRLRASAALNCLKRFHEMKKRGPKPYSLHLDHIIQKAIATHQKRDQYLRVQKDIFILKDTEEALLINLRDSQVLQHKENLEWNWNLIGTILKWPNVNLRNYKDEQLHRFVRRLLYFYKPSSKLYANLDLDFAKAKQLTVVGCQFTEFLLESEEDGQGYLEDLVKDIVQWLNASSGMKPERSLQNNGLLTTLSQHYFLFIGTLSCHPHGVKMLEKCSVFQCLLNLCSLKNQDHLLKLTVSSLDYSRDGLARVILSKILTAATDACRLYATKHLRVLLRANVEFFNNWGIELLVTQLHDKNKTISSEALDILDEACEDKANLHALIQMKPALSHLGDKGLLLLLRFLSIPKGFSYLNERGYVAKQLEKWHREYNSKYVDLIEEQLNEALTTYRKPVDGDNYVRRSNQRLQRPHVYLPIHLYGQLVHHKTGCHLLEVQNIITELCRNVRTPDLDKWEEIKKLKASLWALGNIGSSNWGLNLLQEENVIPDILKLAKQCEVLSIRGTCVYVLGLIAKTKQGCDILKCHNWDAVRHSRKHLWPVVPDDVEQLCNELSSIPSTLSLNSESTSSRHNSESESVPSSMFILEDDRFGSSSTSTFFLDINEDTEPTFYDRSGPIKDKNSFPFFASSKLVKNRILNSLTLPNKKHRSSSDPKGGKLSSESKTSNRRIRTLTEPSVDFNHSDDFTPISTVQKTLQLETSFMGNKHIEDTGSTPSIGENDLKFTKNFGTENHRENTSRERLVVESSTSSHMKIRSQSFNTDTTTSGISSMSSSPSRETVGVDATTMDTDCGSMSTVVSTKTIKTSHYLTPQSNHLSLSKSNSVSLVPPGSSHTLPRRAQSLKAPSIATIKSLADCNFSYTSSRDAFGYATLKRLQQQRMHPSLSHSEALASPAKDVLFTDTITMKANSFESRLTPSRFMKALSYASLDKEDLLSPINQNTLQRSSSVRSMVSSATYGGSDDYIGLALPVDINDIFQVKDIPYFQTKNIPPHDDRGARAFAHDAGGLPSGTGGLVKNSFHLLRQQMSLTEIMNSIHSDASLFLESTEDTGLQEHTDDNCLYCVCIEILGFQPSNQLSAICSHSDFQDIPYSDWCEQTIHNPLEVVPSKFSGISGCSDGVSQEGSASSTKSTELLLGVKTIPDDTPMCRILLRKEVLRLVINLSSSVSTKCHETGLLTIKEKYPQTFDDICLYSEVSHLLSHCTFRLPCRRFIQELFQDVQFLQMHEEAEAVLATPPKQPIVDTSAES
UniProt P21333: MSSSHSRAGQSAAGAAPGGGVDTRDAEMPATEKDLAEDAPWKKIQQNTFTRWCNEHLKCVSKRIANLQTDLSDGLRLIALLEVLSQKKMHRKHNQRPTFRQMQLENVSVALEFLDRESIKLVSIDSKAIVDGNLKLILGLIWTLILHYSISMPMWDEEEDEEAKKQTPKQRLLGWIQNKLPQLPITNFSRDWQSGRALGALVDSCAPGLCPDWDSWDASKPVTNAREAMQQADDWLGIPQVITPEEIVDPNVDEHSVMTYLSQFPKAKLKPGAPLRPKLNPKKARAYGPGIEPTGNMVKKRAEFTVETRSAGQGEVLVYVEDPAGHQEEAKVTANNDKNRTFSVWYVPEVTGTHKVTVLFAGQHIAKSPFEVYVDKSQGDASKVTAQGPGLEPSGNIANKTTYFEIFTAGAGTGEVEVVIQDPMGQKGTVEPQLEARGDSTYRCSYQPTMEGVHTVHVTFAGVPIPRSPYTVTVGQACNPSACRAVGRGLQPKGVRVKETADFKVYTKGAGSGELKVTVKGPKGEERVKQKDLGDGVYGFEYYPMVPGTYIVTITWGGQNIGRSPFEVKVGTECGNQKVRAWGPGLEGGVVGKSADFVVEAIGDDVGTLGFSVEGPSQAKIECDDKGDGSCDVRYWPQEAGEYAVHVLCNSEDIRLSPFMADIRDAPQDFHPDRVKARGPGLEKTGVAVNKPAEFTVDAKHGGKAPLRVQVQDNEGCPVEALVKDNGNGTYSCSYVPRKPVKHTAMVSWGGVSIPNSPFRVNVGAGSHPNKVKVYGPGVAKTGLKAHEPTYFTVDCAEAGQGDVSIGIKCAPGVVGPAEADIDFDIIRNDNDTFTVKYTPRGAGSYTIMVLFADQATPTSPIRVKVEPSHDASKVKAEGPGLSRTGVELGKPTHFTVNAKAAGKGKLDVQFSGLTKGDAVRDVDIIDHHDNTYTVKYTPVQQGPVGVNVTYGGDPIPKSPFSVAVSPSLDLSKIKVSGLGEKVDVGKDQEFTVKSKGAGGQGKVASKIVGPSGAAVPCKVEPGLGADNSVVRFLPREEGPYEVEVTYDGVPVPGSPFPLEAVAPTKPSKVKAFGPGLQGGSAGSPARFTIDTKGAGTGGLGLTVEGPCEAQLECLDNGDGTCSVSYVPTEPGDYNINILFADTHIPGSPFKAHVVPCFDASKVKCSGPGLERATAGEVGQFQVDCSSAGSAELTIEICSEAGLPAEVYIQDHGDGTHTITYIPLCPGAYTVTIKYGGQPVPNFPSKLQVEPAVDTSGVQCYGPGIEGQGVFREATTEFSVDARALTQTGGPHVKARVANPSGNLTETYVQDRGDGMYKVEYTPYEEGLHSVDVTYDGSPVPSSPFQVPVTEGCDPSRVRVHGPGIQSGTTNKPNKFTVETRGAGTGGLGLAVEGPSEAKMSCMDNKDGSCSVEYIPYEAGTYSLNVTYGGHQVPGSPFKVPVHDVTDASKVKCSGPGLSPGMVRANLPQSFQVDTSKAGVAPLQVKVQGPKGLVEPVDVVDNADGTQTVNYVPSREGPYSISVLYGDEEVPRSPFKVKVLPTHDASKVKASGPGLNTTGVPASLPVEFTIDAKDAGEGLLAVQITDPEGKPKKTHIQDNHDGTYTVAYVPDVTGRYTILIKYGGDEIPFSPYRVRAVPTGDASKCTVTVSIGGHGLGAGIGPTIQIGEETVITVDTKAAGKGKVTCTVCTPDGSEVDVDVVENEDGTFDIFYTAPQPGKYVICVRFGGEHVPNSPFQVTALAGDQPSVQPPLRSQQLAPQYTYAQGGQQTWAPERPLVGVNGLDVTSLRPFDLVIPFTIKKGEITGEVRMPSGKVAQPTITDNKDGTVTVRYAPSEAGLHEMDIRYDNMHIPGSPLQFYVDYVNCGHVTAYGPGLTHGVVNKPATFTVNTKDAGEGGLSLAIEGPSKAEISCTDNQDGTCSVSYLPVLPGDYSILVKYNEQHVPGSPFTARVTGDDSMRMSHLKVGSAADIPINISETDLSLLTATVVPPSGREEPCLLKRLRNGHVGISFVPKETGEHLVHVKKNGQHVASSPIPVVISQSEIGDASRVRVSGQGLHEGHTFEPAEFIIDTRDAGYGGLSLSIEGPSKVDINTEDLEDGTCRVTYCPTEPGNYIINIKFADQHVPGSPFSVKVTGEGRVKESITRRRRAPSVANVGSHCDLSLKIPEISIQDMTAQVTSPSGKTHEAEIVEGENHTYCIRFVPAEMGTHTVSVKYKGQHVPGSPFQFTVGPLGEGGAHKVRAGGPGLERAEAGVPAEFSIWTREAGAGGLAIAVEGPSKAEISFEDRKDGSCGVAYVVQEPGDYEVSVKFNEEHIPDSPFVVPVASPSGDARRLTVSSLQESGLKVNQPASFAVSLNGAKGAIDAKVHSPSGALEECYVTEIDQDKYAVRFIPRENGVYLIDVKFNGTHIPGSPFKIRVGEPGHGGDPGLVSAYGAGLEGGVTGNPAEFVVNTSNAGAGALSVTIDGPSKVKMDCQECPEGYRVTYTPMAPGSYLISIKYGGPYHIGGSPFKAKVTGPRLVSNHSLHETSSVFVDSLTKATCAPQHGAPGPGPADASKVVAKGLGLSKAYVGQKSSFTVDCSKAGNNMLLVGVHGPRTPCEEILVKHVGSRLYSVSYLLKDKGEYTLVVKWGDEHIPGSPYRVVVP
UniProt Q8N122: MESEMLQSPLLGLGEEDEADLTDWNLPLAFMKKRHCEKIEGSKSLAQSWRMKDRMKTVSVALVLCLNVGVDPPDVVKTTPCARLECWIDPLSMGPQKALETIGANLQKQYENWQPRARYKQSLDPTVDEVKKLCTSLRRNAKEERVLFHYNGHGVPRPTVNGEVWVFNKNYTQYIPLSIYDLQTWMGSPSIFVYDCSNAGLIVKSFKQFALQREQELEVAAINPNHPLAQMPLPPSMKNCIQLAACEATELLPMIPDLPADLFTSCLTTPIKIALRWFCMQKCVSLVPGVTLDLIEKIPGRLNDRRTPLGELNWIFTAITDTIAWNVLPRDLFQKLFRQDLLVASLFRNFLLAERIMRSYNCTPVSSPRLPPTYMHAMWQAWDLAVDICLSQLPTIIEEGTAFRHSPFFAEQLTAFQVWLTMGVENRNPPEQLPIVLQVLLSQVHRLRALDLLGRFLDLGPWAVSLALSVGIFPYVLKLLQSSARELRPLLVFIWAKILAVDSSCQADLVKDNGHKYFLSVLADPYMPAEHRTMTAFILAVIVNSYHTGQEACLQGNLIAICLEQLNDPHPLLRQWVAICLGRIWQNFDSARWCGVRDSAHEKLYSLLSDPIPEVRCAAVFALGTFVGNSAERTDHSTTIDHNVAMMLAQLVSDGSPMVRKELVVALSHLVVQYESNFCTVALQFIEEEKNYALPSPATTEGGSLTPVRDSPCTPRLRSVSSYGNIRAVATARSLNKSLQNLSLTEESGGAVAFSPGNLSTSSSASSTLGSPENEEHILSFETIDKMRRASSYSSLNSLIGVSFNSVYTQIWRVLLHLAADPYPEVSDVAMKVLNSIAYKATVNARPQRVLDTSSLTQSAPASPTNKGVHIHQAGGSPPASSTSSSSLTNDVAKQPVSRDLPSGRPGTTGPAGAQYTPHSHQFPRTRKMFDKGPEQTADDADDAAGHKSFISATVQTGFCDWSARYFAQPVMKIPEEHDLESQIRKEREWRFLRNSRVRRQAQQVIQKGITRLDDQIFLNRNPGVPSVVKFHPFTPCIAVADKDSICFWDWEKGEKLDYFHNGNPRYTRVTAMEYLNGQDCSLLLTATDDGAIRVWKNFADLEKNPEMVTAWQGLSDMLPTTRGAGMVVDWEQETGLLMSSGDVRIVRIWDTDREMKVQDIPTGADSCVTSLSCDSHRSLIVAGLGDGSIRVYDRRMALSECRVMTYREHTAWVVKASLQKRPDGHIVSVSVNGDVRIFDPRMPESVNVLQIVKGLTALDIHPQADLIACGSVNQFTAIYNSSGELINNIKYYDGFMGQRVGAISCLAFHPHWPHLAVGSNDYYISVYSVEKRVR

Experiment [1] concerns the target FLAG-RICTOR (stably expressed in HEK293T cells) (UniProt Q6R327). The experiment in a line: co-IP; FLAG-RICTOR captured from HEK293T lysate (2 % CHAPS) on anti-FLAG M2 magnetic beads, eluted with 3X FLAG peptide; partners detected by immunoblot.
The target in experiment [2] is FLAG-RICTOR (stably expressed in U87vIII cells) (UniProt Q6R327). Briefly: co-IP; FLAG-RICTOR captured from U87vIII lysate (2 % CHAPS) on anti-FLAG M2 magnetic beads, eluted with 3X FLAG peptide; partners detected by immunoblot. In general terms: In western blotting, separated proteins are transferred to a membrane and probed.
Experiment [3] has the same target. Briefly: co-IP; FLAG-RICTOR captured on anti-FLAG beads from U87vIII cells lysed with 1 % Triton X-100 in place of 2 % CHAPS (dissociates mTOR from RICTOR); immunoblot.
For experiment [4], the target named is phospho-Filamin A (Ser2152) (endogenous, U87vIII cells) (human (endogenous in U87vIII)) (UniProt P21333). Briefly: co-IP; U87vIII lysate (2 % CHAPS) incubated overnight at 4 °C with antibodies against mTOR, phospho-FLNA (Ser2152), RICTOR or RAPTOR, protein G Dynabeads; endogenous proteins detected by Western blot.
Experiment [5] addresses RICTOR (endogenous, U87vIII cells) (human (endogenous in U87vIII)) (UniProt Q6R327). Described as above.

These are yes or no findings as the source states them, for the method shown. In cells and extracts the contact can be indirect. Some results given as binding are weak or reduced against the parent protein; the word gives no strength.

“Filamin A (endogenous, HEK293T cells) (from UniProt P21333 1-2647)”: the binding entry in experiment [1] was “binds”.

As for “Filamin A (endogenous, U87vIII cells) (from UniProt P21333 1-2647)”, the binding result in experiment [2] and in experiment [3] was “binds” throughout.

For the substance “PKCα (endogenous, U87vIII cells) (from UniProt P17252 1-672)”, in experiment [2], the binding entry is reported as “no binding”.

For the substance “RAPTOR (endogenous, U87vIII cells) (from UniProt Q8N122 1-1335)”, the binding entry in experiment [4] is “no binding”.

On to “phospho-Filamin A (Ser2152) (endogenous, HEK293T cells) (from UniProt P21333 1-2647)”, for which, in experiment [1], the binding entry is “binds”.

Turning to “phospho-Filamin A (Ser2152) (endogenous, U87vIII cells) (from UniProt P21333 1-2647)”, the binding result in experiment [2] and in experiment [5] was “binds” in each case.
